Reference: PubChem BioAssay AID2100 (National Center for Advancing Translational Sciences (NCATS), 2009)
The campaign covered roughly 300,000 compounds. About 1,200 (0.4%) were called active. This list was built around the results that the source calls inconclusive (neither active nor inactive); the mix of calls is not that of the screen. Calls come from the whole dose curve; as a rule, active = well fitted inhibition curve with a large enough effect; inconclusive = small, poorly fitted or top-dose-only effect, or another doubt; inactive = no such curve, though single readings can be large or run the other way. Potencies of inconclusive entries are doubtful fits and often do not repeat.
Potency is the fitted concentration of half-maximal effect.
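Throughout, for activity change, negative = inhibition: 0% = full enzyme reaction and -100% = no-enzyme basal signal.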

What follows are molecules tested against Lysosomal alpha-glucosidase (Homo sapiens) (UniProt P10253) (assay: qHTS Assay for Inhibitors and Activators of Human alpha-Glucosidase Cleavage of Glycogen). Settings: recombinant GAA, glycogen substrate, Amplex Red glucose oxidase fluorescence; activity change, negative = inhibition: at 76.4 µM (top of the series) unless noted.
Summary of the method: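 Recombinant enzyme (4 nM final) with compounds titrated up to 77 uM and bovine liver glycogen (30 ug) in citrate pH 5.0, 0.01% Tween-20, 37 C 40 min. Released glucose detected by Amplex Red/glucose oxidase (Ex 573/Em 610); AC50 from Hill fits.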
For `Cc1ccccc1Nc1c(-c2ccccc2)nc2ncccn12`, the Potency was inconclusive: 14.1 µM [inhibitor, partial curve]. With `COC(=O)c1sccc1N/N=C/c1cccc(OC)c1O` the Potency was inconclusive: 17.8 µM [inhibitor, partial curve]. With `CC(=O)Oc1ccc(OC(C)=O)c(S(=O)(=O)c2ccc(C)c(C)c2)c1` the Potency was “inactive”. `COc1cc(CNc2ccc(O)cc2)cc(Br)c1OCc1ccccc1F` was tested, and the Potency was inconclusive: 5.01 µM [inhibitor, full curve]. For `CCc1cc(/C(Cc2ccccn2)=N\O)c(O)cc1O`, the Potency was inconclusive: 39.5 µM [inhibitor, single point]. For `Cc1ccc2nc(-c3ccc(NC(=S)NC4CC(C)(C)NC(C)(C)C4)cc3)sc2c1`, the Potency was “inactive”. For `CC1(C)CC(=O)C2=C(C1)Nc1ccccc1S2`, the Potency was inconclusive: 35.5 µM [inhibitor, partial curve]. In the case of `COc1cc(C2C(=O)c3ccccc3C2=O)ccc1O`, the Potency is reported as inconclusive: 79.4 µM [inhibitor, partial curve]. In the case of `Cc1ccc(S(=O)(=O)Nc2cc(C(=O)O)ccc2N2CCCCC2)cc1`, the Potency is reported as inconclusive: 17.6 µM [inhibitor, partial curve]. `COC(=O)c1cc(NCc2cccs2)ccc1N1CCOCC1` was tested, and the Potency was inconclusive: 14.1 µM [inhibitor, partial curve]. For `CCc1cc(-c2[nH]ncc2-c2ccc3c(c2)OCO3)c(O)cc1O`, the Potency was inconclusive: 7.88 µM [inhibitor, partial curve]. With `Cc1ccc2[nH]c(C)c(CCNC(=O)c3c(N)no[n+]3[O-])c2c1` the Potency was inconclusive: 39.8 µM [inhibitor, single point]. With `COc1cc(/C=N\Nc2nc(-c3cccs3)c(NC(C)=O)s2)ccc1O` the Potency was inconclusive: 3.98 µM [inhibitor, full curve]. In the case of `CCOC(=O)C(=O)NCc1ccc(/C=C2/N=C(C)C(C(=O)OCC)=C2O)o1`, the Potency is reported as inconclusive: 28 µM [inhibitor, partial curve]. With `Nc1cc2c(cc1O)CCCC2` the Potency was inconclusive: 3.55 µM [inhibitor, full curve]. In the case of `Cn1c(-c2cccc([N+](=O)[O-])c2)cnc1NCc1ccc(C#N)cc1`, the Potency is reported as inconclusive: 35.5 µM [inhibitor, partial curve]. For `O=[N+]([O-])c1cc(-c2nnc(Nc3ccc(O)cc3)c3ccccc23)ccc1N1CCOCC1`, the Potency was active: 15.7 µM. `C/C(=N\NC(=O)c1ccccc1O)c1c(O)cc(C)oc1=O` was tested, and the Potency was inconclusive: 14 µM [inhibitor, partial curve]. `O=C(NNC(=S)NC(=O)c1ccc(F)cc1)c1cccnc1` was tested, and the Potency was inconclusive: 28.2 µM [inhibitor, partial curve]. `O=C(CC1SC(=O)N(c2ccccc2)C1=O)Nc1cccc2ccccc12` (configuration not stated) was tested, and the Potency was inconclusive: 50.1 µM [inhibitor, single point]. In the case of `C=C(C)CNC(=S)N/N=C(\C)c1ccc(OC)cc1`, the Potency is reported as inconclusive: 31.4 µM [inhibitor, single point]. In the case of `Cn1c(-c2cccc([N+](=O)[O-])c2)cnc1NCc1cccc([N+](=O)[O-])c1`, the Potency is reported as active: 22.2 µM. For `Cc1ncc(CO)c(/C=N/Nc2cccc(Cl)n2)c1O`, the Potency was inconclusive: 50.1 µM [inhibitor, single point]. `Cc1cc(C)nc(NNC(=O)c2ccccc2O)n1` was tested, and the Potency was inconclusive: 15.7 µM [inhibitor, partial curve]. With `O=C(NC1C(=O)NNC1c1ccccc1)c1ccc(F)cc1` (configuration not stated) the Potency was inconclusive: 17.8 µM [inhibitor, partial curve]. For `COc1ccc(CCNc2ccc(S(=O)(=O)N3CCCC3)cc2[N+](=O)[O-])cc1`, the Potency was “inactive”. In the case of `CCCCn1c(NC(=O)c2ccccc2)c(C#N)c2nc3ccccc3nc21`, the Potency is reported as “inactive”. In the case of `COc1ccc(OC)c(C2C(C#N)=C(N)Oc3c2c(C)nn3-c2cccc(Cl)c2)c1` (configuration not stated), the Potency is reported as inconclusive: 35.5 µM [inhibitor, single point]. With `CCOc1ccccc1NC(=S)N1CCN(c2ccc(O)cc2)CC1` the Potency was inconclusive: 3.55 µM [inhibitor, partial curve]. In the case of `C=CCc1cccc(C=Nc2cc(Br)ccc2O)c1O`, the Potency is reported as inconclusive: 7.03 µM [inhibitor, single point]. With `Fc1ccc(N/N=C2/CCSc3sccc32)c(F)c1` the Potency was inconclusive: 15.7 µM [inhibitor, partial curve]. `CC1=NNC(=O)C1CC(=O)N/N=C/C(Br)=C/c1ccccc1` (configuration not stated) was tested, and the Potency was inconclusive: 17.8 µM [inhibitor, partial curve]. In the case of `O=S(=O)(c1ccc(F)cc1)c1nc(-c2ccco2)oc1Nc1ccccc1`, the Potency is reported as inconclusive: 39.5 µM [inhibitor, single point]. In the case of `O=[N+]([O-])c1ccccc1Nc1ccc(O)cc1`, the Potency is reported as active: 10 µM. With `COc1ccc(NC(C#N)c2ccc(OC)cc2)cc1` (configuration not stated) the Potency was inconclusive: 22.2 µM [inhibitor, partial curve]. `O=C(c1ccncc1)c1ccc(N2CCN(C3CC(=O)N(Cc4cccs4)C3=O)CC2)cc1` (configuration not stated) was tested, and the Potency was “inactive”. `Cn1c(=S)c2[nH]c(SCCN3CCCC3)nc2n(C)c1=O` was tested, and the Potency was inconclusive: 28.2 µM [inhibitor, single point]. For `Cc1ccccc1-c1cn(-c2ccccc2)c(=S)[nH]1`, the Potency was inconclusive: 28.2 µM [inhibitor, single point]. In the case of `COc1ccc(/C=N/Nc2nc3ccccc3s2)cc1O`, the Potency is reported as inconclusive: 39.8 µM [inhibitor, partial curve]. In the case of `CSc1ccc(C2c3c(oc4cc(C)cc(C)c4c3=O)C(=O)N2CCO)cc1` (configuration not stated), the Potency is reported as inconclusive: 50.1 µM [inhibitor, single point]. With `CCOC(=O)c1cc(-c2ccc(OC)cc2)nc2c1c(C)nn2CCC#N` the Potency was “inactive”. For `O=C1CC(N2CCc3ccccc32)C(=O)N1c1ccc(F)cc1` (configuration not stated), the Potency was inconclusive: 7.88 µM [inhibitor, partial curve]. In the case of `Cc1ccc(NC(=S)NNC(=O)c2nnn(-c3ccccc3)c2C)cc1`, the Potency is reported as inconclusive: 9.92 µM [inhibitor, partial curve]. With `CC(=O)Nc1ccc(Nc2nc3c(S(=O)(=O)c4cccc(Cl)c4)nnn3c3ccsc23)cc1` the Potency was “inactive”. For `CN(C)c1nc(NCc2ccccc2)nc(N/N=C/c2ccc(Br)cc2)n1`, the Potency was “inactive”. For `CCOc1cc(C2NC(=O)c3c(sc4c3CCN(C)C4)N2)ccc1OC(=O)c1ccccc1Cl` (configuration not stated), the Potency was inconclusive: 15.8 µM [inhibitor, partial curve]. `CN(C)Cc1c(O)c(Cl)cc2c3c(c(=O)oc12)CCCC3` was tested, and the Potency was inconclusive: 17.8 µM [activator, partial curve]. With `CCCc1[nH]nc2c1C(c1ccc(O)c(OC)c1)C(C#N)=C(N)O2` (configuration not stated) the Potency was inconclusive: 12.5 µM [inhibitor, partial curve]. For `Cc1ccc(O)c(NC(=S)NC(=O)C(C)C)c1`, the Potency was inconclusive: 31.6 µM [inhibitor, partial curve]. `COc1cc(/C=N/NC(=O)c2cnccn2)ccc1O` was tested, and the Potency was inconclusive: 31.6 µM [inhibitor, single point]. In the case of `COC(=O)c1nn(-c2ccc(OC)cc2)c(=O)cc1NN`, the Potency is reported as inconclusive: 8.84 µM [inhibitor, full curve]. `CCCCOC(=O)CSc1nc2c(c(=O)[nH]c(=O)n2C)n1C/C=C(\C)Cl` was tested, and the activity change, negative = inhibition was inconclusive: 41.2% [activator]. In the case of `CCOC(=O)C1=C(C(F)(F)F)Nc2ncnn2C1c1ccc(OC)cc1OC` (configuration not stated), the Potency is reported as inconclusive: 50.1 µM [inhibitor, single point]. `COCCNc1oc(-c2ccc(COc3ccc(OC)cc3)o2)nc1C#N` was tested, and the Potency was inconclusive: 22.4 µM [inhibitor, partial curve]. In the case of `CCc1nnc(NC(=O)CSc2nc(C)c3c(c2C#N)CCCC3)s1`, the Potency is reported as “inactive”. For `Cc1ccccc1-n1c(C)cc(/C=C2\NC(=O)NC2=O)c1C`, the Potency was inconclusive: 28.2 µM [inhibitor, single point]. With `Cc1cccc(N2CCC(N=CN(C)C)=N2)c1` the Potency was inconclusive: 22.4 µM [inhibitor, partial curve]. For `CO[C@H]1C=CO[C@@]2(C)Oc3c(C)c(O)c4c(O)c(c(C=NN5CCN(C)CC5)c(O)c4c3C2=O)NC(=O)C(C)=CC=C[C@H](C)[C@H](O)[C@@H](C)[C@@H](O)[C@@H](C)[C@H](OC(C)=O)[C@@H]1C`, the Potency was inconclusive: 35.2 µM [inhibitor, single point]. In the case of `O=C(O)c1[nH]c2ccccc2c1C(c1cccc(O)c1)c1c(C(=O)O)[nH]c2ccccc12`, the Potency is reported as “inactive”. In the case of `CCCCN(CC)Cc1ccc(CNC(=S)Nc2ccc(C)cc2Cl)o1`, the Potency is reported as inconclusive: 31.6 µM [inhibitor, single point]. In the case of `Cc1cc(C)c2nc(N3CCC(C(=O)N4CCN(c5ncccn5)CC4)CC3)sc2c1`, the Potency is reported as inconclusive: 39.5 µM [inhibitor, partial curve, poor fit]. In the case of `Cc1occc(=O)c1OCc1ccccc1`, the Potency is reported as inconclusive: 7.08 µM [inhibitor, partial curve]. In the case of `O=C(NCc1ccco1)/C(=C\c1ccco1)NC(=O)c1ccco1`, the Potency is reported as “inactive”. In the case of `CCC(=O)NC(c1ccc(N(C)C)cc1)c1c(O)ccc2ccccc12` (configuration not stated), the Potency is reported as inconclusive: 35.5 µM [inhibitor, partial curve]. With `CC(C)c1cc(C(=O)NNC(=S)NCc2ccco2)c(O)c(C(C)C)c1` the Potency was inconclusive: 39.8 µM [inhibitor, single point]. `COC(=O)C1=CN(c2cc(C)cc(C)c2)C=C(C(=O)OC)C1c1ccc(OC)c(O)c1` was tested, and the Potency was inconclusive: 50.1 µM [inhibitor, single point]. With `CN(C)c1ccc(-n2cccc2)cc1` the Potency was inconclusive: 28.2 µM [activator, partial curve].
